Measured values as given in PubChem BioAssay AID761 (NMMLSC, 2007).
The whole screen tested about 190,000 compounds, of which about 400 (0.21%) were called active. The inconclusive results got no clear call from the source; some entries with a clear call stand among them for comparison.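 The calls were made as follows: active = percent activity GTP binding at least 20 points away from the 100% baseline, either down as inhibitor or up as activator; inconclusive = compound flagged as likely green fluorescent from well-wide comparison; inactive = the rest.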

These molecules were tested against Cell division control protein 42 homolog (Homo sapiens) (UniProt P60953) (assay: wildtype Cdc42 fluorescent GTP binding changes, either direction – biochemical, multiplex bead flow cytometry, Bodipy-GTP, primary screen (AID 761;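 also: median bead fluorescence of bound Bodipy-FL-GTP at 100 nM; 0% = excess unlabeled GTP control and 100% = no compound control; below 100% means less GTP binding so inhibitor and above means activator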)). Conditions: GST-Cdc42 beads, at 10 µM, actives lie on both sides.
Sequence of UniProt P60953 (P60953 whole entry, looked up): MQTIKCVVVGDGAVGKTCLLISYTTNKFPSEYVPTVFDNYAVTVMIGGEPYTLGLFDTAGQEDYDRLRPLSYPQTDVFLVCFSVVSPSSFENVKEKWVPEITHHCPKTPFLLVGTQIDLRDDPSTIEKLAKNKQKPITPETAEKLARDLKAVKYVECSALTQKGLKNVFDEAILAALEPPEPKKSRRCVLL
For Cc1ccc(/C(N)=N/OC(=O)CCC2CCCCC2)cc1, the percent activity (GTP binding) was inactive: 102%.
O=C(O)CC(NC(=O)c1sc2ccccc2c1Cl)c1ccc(OC2CCCC2)cc1 (stereo not drawn) was tested, and the percent activity (GTP binding) was inconclusive: 76%.
In the case of O=C(N/N=C/c1ccc[nH]1)c1ccc(O)cc1, the percent activity (GTP binding) is reported as inconclusive: 92%.
With Cn1c(=O)cc(SCC(=O)NCCCN2CCOCC2)c2ccc(Cl)cc21 the percent activity (GTP binding) was inconclusive: 101%.
COCc1cc(=O)n2[nH]c(SCc3ccccc3)nc2n1 was tested, and the percent activity (GTP binding) was inconclusive: 105%.
In the case of Brc1ccc(Cn2c(-c3cncs3)nc3ccccc32)cc1, the percent activity (GTP binding) is reported as inconclusive: 104%.
CCCN1C(=O)/C(=C\C=C2\N(CC)c3ccccc3C2(C)C)SC1=S was tested, and the percent activity (GTP binding) was inconclusive: 142%.
For Cc1cc(N2CCN(C)CC2)nc2ccc(NC(=S)N3CCOCC3)cc12, the percent activity (GTP binding) was inactive: 96%.
With COc1ccccc1CN(C)c1nnnn1-c1ccccc1 the percent activity (GTP binding) was inactive: 102%.
With Cc1cc(C(F)(F)F)c(C#N)c(SCC(=O)Nc2nc3ccccc3s2)n1 the percent activity (GTP binding) was inconclusive: 120%.
For COc1cc(/C=C2/C(=O)NN(c3cccc(F)c3)C2=O)ccc1OC(=O)c1ccco1, the percent activity (GTP binding) was inconclusive: 91%.
With CCCCn1c(=O)c(CCC(=O)OCC(=O)NCc2ccc(OC)c(OC)c2)nc2ccccc21 the percent activity (GTP binding) was inconclusive: 94%.
O=C(COC(=O)CNS(=O)(=O)c1ccccc1)Nc1ccc(Cl)cn1 was tested, and the percent activity (GTP binding) was inconclusive: 105%.
O=C(NC1CCCC1)C1CC(=O)N(C2CCCCCCC2)C1 (stereo not drawn) was tested, and the percent activity (GTP binding) was inconclusive: 102%.
With CCOC(=O)c1c(C)[nH]c(C)c1C(=O)COC(=O)c1ccc(Cl)c(S(=O)(=O)NCc2ccccc2)c1 the percent activity (GTP binding) was inactive: 95%.
With COc1ccc(C2CC3CC(c4ccccc4)N2O3)cc1 (stereo not drawn) the percent activity (GTP binding) was inconclusive: 119%.
In the case of CC1(C)Cc2c(sc3c2C2=NCCN2C=N3)CS1, the percent activity (GTP binding) is reported as inactive: 113%.
In the case of O=C1N(c2cccc3ccccc23)C(c2ccccc2)N2CCCN12 (stereo not drawn), the percent activity (GTP binding) is reported as inconclusive: 103%.
With COc1ccc2cc(CN(Cc3ccco3)C(=S)NCC3CCCO3)c(=O)[nH]c2c1 (stereo not drawn) the percent activity (GTP binding) was inconclusive: 94%.
CCOC(=O)c1sc(NC(=O)C2CCC2)cc1C was tested, and the percent activity (GTP binding) was inactive: 95%.
With CC(=O)N1CCC(N(CCN2CCOCC2)C(=S)Nc2cc(C)ccc2C)CC1 the percent activity (GTP binding) was inconclusive: 105%.
For COc1ccc(C(=O)/C=C/Nc2ccc(S(=O)(=O)Nc3nc(C)cc(C)n3)cc2)cc1OC, the percent activity (GTP binding) was inactive: 89%.
Cc1nn2c(N)csc2nc1=O was tested, and the percent activity (GTP binding) was inconclusive: 67%.
COc1cc(/C=N/Nc2ccc(F)cc2F)cc(OC)c1OC was tested, and the percent activity (GTP binding) was inactive: 98%.
O=C(NCCO)Nc1ccc2nc(-c3ccco3)c(-c3ccco3)nc2c1 was tested, and the percent activity (GTP binding) was inconclusive: 80%.
For CSc1cccc(NC(=S)N(CCN(C)C)C(C)c2ccccn2)c1 (stereo not drawn), the percent activity (GTP binding) was inconclusive: 91%.
With COC(=O)c1cc(=O)c2c([N+](=O)[O-])ccc(OC)c2o1 the percent activity (GTP binding) was inconclusive: 89%.
In the case of CC(C)NC(=O)COC(=O)c1ccccc1Oc1ccccc1, the percent activity (GTP binding) is reported as inconclusive: 106%.
In the case of CC(Nn1cnnc1)c1cc(Cl)ccc1O (stereo not drawn), the percent activity (GTP binding) is reported as inconclusive: 85%.
In the case of O=C(O)Cc1sc(-c2ccccc2)nc1-c1cccs1, the percent activity (GTP binding) is reported as inactive: 92%.
COc1cccc(C2CC(c3ccccc3)=NN2S(=O)(=O)c2ccc(C)cc2)c1OC (stereo not drawn) was tested, and the percent activity (GTP binding) was inconclusive: 134%.
In the case of COC(=O)c1cc(Cl)c(NC(=O)c2cc3ccccc3o2)cc1OC, the percent activity (GTP binding) is reported as inactive: 100%.
Cc1cc(C(=O)CSc2nn3c(=O)c(C(C)(C)C)nnc3s2)c(C)n1C1CC1 was tested, and the percent activity (GTP binding) was inconclusive: 94%.
For O=S1(=O)CCN(Cc2cccc(Cl)c2)CC1, the percent activity (GTP binding) was inconclusive: 106%.
With Cc1ccc(-c2ccc(/C=C3\SC(N4CCOCC4)=NC3=O)o2)cc1 the percent activity (GTP binding) was inactive: 87%.
With CC1CCN(CCNC(=S)Nc2ccc(Cl)cc2)CC1 the percent activity (GTP binding) was inactive: 99%.
For COC(=O)c1c(NC(=O)COC(=O)Cn2cnc3ccccc32)sc2c1CCCC2, the percent activity (GTP binding) was inconclusive: 95%.
With Cc1nn(CC(=O)NCc2cccnc2)c(=O)c2ccccc12 the percent activity (GTP binding) was inconclusive: 81%.
With O=C(Nc1nnc(-c2ccccc2Cl)o1)c1nc2ccccc2s1 the percent activity (GTP binding) was inactive: 100%.
With COC(CNC(=O)C1CCCN1C(=O)OCc1ccccc1)OC (stereo not drawn) the percent activity (GTP binding) was inactive: 119%.
With N#Cc1c2c(c(-c3ccccc3Cl)[nH]c1=S)CCCC2 the percent activity (GTP binding) was active: 79%.
With CCOc1ccc(NC(=O)c2cc3c(C)nc4ccccc4c3o2)cc1 the percent activity (GTP binding) was inconclusive: 97%.
With C[C@H](NC(=O)Nc1ccc2c(c1)OCCO2)C(=O)O the percent activity (GTP binding) was inconclusive: 108%.
For CC1C(=O)CCN(C(C)C)C1C (stereo not drawn), the percent activity (GTP binding) was inconclusive: 106%.
In the case of CCCOc1ccc(N2C(=O)CC(SCCN)C2=O)cc1 (stereo not drawn), the percent activity (GTP binding) is reported as inconclusive: 104%.
In the case of COc1cc(C(=O)OCC(=O)Nc2ccc3c(c2)OC(F)(F)O3)ccc1OCc1c(C)noc1C, the percent activity (GTP binding) is reported as active: 34%.
Fc1ccc(CSc2ccc3nnc(-c4cccnc4)n3n2)cc1 was tested, and the percent activity (GTP binding) was inconclusive: 79%.
In the case of CC(C)CNC(=O)COC(=O)CNC(=O)c1cc(Cl)cc([N+](=O)[O-])c1, the percent activity (GTP binding) is reported as inconclusive: 103%.
In the case of O=C(c1cc(F)ccc1F)C1CCCN(C(=O)CCc2cnccn2)C1 (stereo not drawn), the percent activity (GTP binding) is reported as inconclusive: 93%.
In the case of CCC(=O)Oc1ccc(C(=O)Nc2ccc3c(c2)C(=O)N(C2CCCCC2)C3=O)cc1, the percent activity (GTP binding) is reported as inconclusive: 99%.
C=CCn1c(O)c(N=NC(=O)c2ccccc2NS(=O)(=O)c2cccs2)c2ccccc21 was tested, and the percent activity (GTP binding) was inactive: 94%.
For N#Cc1cc(-c2ccccc2)nnc1Oc1ccccc1Cl, the percent activity (GTP binding) was inconclusive: 95%.
For COc1ccc(-c2nc(C#N)c(N3CCN(c4ccccc4)CC3)o2)cc1, the percent activity (GTP binding) was inconclusive: 91%.
In the case of Cc1ccc(OCCSc2nc(N)cc(N)n2)cc1, the percent activity (GTP binding) is reported as inconclusive: 87%.
For CCOc1cc(-c2nc(-c3ccccc3OC)no2)cc(OCC)c1OCC, the percent activity (GTP binding) was inconclusive: 106%.
In the case of CCOc1ccc(NC(=S)N2CCN(CCN3C(=O)c4cccc5cccc(c45)C3=O)CC2)cc1, the percent activity (GTP binding) is reported as inconclusive: 90%.
In the case of Cc1ccc(CN2CCN(Cc3ccc4cc(F)ccc4n3)CC2CCO)o1 (stereo not drawn), the percent activity (GTP binding) is reported as inactive: 94%.
CC(=O)N1CCC(N(CCCOC(C)C)C(=O)Nc2ccc(C)c(C)c2)CC1 was tested, and the percent activity (GTP binding) was inconclusive: 93%.
For COc1ccc(OCc2nc(N)nc(Nc3ccc(C)cc3)n2)cc1, the percent activity (GTP binding) was inconclusive: 107%.
In the case of O=S(=O)(c1ccc2c(c1)N(Cc1ccc(Cl)cc1)C1CCCN21)N1CCOCC1 (stereo not drawn), the percent activity (GTP binding) is reported as inactive: 100%.
For COc1cc2ccccc2cc1C(=O)NC(=S)Nc1cccc(C(=O)O)c1, the percent activity (GTP binding) was active: 75%.
NC(=O)C1(N2CCCCC2)CCN(C(=S)NC2CCCC2)CC1 was tested, and the percent activity (GTP binding) was inactive: 94%.
In the case of COc1cc(C=O)ccc1OCc1cccc(Br)c1, the percent activity (GTP binding) is reported as inconclusive: 98%.
In the case of Cn1ncc2c(N3CCN(c4ccc(Cl)c(Cl)c4)CC3)ncnc21, the percent activity (GTP binding) is reported as inactive: 98%.
CCOC(=O)CNC1CC(=O)N(c2cccc(Cl)c2)C1=O (stereo not drawn) was tested, and the percent activity (GTP binding) was inactive: 103%.
In the case of Cc1ccc(OCc2nn3c(-c4ccco4)nnc3s2)cc1, the percent activity (GTP binding) is reported as inconclusive: 98%.
In the case of CCN(CC)CCN1C(=O)C(=O)/C(=C(/O)c2cnn(-c3ccccc3)c2C)C1c1cccnc1 (stereo not drawn), the percent activity (GTP binding) is reported as inactive: 100%.
Cc1ccc(CN2C(=O)N/C(=C/c3ccc4c(c3)n(C)c(=O)n4C)C2=O)cc1 was tested, and the percent activity (GTP binding) was inconclusive: 94%.
With O=C(CC(c1ccccc1)c1ccccc1O)NCCN1CCOCC1 (stereo not drawn) the percent activity (GTP binding) was inconclusive: 105%.
For O=S(=O)(NCc1ccc2c(c1)OCO2)c1cccc(S(=O)(=O)N2CCOCC2)c1, the percent activity (GTP binding) was inactive: 105%.
COc1ccc(-n2c(C)cc(/C=C3/SC(=S)N(C)C3=O)c2C)cc1 was tested, and the percent activity (GTP binding) was inconclusive: 209%.
C=CCn1c(=O)c2ccccc2n2c(SCc3cc(=O)n4ccsc4n3)nnc12 was tested, and the percent activity (GTP binding) was inconclusive: 114%.
CC1CC(C)(C)NC(=S)N1CCC(=O)N1CCc2ccccc2C1 (stereo not drawn) was tested, and the percent activity (GTP binding) was inactive: 98%.
For CCOC(=O)c1c(NC(=O)CSc2nnc(Cc3ccccc3)o2)sc(C(C)=O)c1C, the percent activity (GTP binding) was inactive: 103%.
With Cc1cc(=O)[nH]c(-c2ccccc2O)n1 the percent activity (GTP binding) was inconclusive: 102%.
In the case of Cc1sc2c(c1C)c(=O)nc1n2Cc2ccccc2-1, the percent activity (GTP binding) is reported as inconclusive: 87%.
For CC(=O)c1ccc(OCC(O)CN2CCN(CCO)CC2)cc1 (stereo not drawn), the percent activity (GTP binding) was inactive: 98%.
With Clc1ccc(CN(Cc2ccc(Cl)cc2)c2nn[nH]n2)cc1 the percent activity (GTP binding) was inactive: 80%.
In the case of COc1ccc(Cn2nc(-c3ccccc3)c(N3CCCCC3)cc2=O)cc1, the percent activity (GTP binding) is reported as inconclusive: 94%.
In the case of CC1CC(NS(=O)(=O)c2cccs2)CC(C)(C)C1 (stereo not drawn), the percent activity (GTP binding) is reported as inconclusive: 99%.
With Cc1cc(C)nc(Nc2ncc(O)n2-c2ccc(C)c(C)c2)n1 the percent activity (GTP binding) was inconclusive: 101%.
In the case of Cc1ccc(/C=N/NC(=O)c2ccc(Cn3cc([N+](=O)[O-])cn3)o2)cc1, the percent activity (GTP binding) is reported as inactive: 99%.
With O=S(=O)(c1ccc2nc(-c3ccco3)c(-c3ccco3)nc2c1)N1CCOCC1 the percent activity (GTP binding) was inconclusive: 95%.
With COc1ccc(S(=O)(=O)N2CCC(C(=O)N3CCc4ccccc4C3)CC2)cc1C the percent activity (GTP binding) was inconclusive: 90%.
For O=S(=O)(/C=C/c1ccccc1)N1CCN(Cc2ccc3c(c2)OCO3)CC1, the percent activity (GTP binding) was inconclusive: 92%.
With COc1cc(OC)c(S(=O)(=O)N2CCCCC2)cc1S(=O)(=O)N1CCCCC1 the percent activity (GTP binding) was inconclusive: 107%.
In the case of CCOc1cc(/C=C2/NC(=O)N(CC(=O)Nc3cccc(C)c3)C2=O)ccc1OCC(N)=O, the percent activity (GTP binding) is reported as inconclusive: 96%.
For Cc1cc(Oc2ccccc2)nc(SCC(=O)Nc2ccc(Cl)cc2Cl)n1, the percent activity (GTP binding) was inconclusive: 104%.
With COc1cccc(/C=N/NC(=O)c2[nH]c(C)c(C(=O)N/N=C/c3cccc(OC)c3)c2C)c1 the percent activity (GTP binding) was inconclusive: 89%.
In the case of COCCCNC(=O)c1cc2c(-c3ccc(Cl)cc3)nn(C)c2s1, the percent activity (GTP binding) is reported as inconclusive: 90%.
In the case of Cc1[nH]c2ccccc2c1C(=O)COC(=O)Cn1c(C(F)(F)F)nc2ccccc21, the percent activity (GTP binding) is reported as inconclusive: 104%.
COc1ccc(C(=O)N/N=c2\oc3ccccc3cc2C(N)=O)cc1 was tested, and the percent activity (GTP binding) was inconclusive: 77%.
In the case of CN(C)/C=C(\C#N)C(N)=C(C#N)C#N, the percent activity (GTP binding) is reported as inconclusive: 78%.
